Experimental findings from PMC4336329 (PLoS ONE, 2015) are described below.

SMILES strings stand for the structures. In all, about 310,000 compounds went through this assay and about 14,000 (4.5%) showed an effect of 50% or more. The effect is printed as a negative number. The list shows a part of the results.
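Also: peak tail current of the secondary pulse compared with the same well before compound.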

Chain of human ether-à-go-go-related gene (hERG) potassium channel (Q12809 whole entry, looked up): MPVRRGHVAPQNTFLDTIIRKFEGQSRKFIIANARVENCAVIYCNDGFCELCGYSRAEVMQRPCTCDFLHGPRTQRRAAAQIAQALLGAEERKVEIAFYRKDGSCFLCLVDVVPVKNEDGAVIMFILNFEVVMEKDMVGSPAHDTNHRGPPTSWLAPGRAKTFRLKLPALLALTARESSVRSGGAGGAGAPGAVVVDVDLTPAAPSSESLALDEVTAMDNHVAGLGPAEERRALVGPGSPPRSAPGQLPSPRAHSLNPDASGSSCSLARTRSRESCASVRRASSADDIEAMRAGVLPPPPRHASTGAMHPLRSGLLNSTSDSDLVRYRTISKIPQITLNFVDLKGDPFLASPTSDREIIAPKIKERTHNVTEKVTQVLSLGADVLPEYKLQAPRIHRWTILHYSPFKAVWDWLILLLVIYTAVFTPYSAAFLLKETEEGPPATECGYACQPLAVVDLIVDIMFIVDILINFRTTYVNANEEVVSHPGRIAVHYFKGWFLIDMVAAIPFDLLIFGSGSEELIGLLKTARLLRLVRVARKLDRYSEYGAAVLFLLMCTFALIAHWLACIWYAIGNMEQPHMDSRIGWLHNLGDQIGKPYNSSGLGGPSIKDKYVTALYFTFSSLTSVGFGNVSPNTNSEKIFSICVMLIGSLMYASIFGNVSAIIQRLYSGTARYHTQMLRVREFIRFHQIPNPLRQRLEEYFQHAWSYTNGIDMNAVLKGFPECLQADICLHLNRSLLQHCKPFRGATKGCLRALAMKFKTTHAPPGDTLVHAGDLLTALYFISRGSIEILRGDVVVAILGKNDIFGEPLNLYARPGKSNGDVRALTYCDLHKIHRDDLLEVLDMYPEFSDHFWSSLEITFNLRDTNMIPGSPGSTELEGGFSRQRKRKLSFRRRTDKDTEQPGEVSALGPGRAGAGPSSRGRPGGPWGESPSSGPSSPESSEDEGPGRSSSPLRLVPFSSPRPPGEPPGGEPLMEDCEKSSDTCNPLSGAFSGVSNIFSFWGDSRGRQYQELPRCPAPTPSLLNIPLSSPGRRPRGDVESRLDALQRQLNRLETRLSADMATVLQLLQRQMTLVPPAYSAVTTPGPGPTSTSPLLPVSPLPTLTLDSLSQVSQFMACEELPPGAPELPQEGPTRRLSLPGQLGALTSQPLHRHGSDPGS

The test concerns the target human ether-à-go-go-related gene (hERG) potassium channel (human, UniProt Q12809). The test can be described thus: primary screen, population patch clamp on CHO cells stably expressing hERG.
On to `CCN(Cc1nc2ccccc2n1C)c1ccccc1`, for which the “hERG current change (%, negative = inhibition) at 10uM” value is -6.44%.

Turning to `CSc1nc2ccccc2n1C(=O)NC1CCCCC1`, the “hERG current change (%, negative = inhibition) at 10uM” value turned out to be 13.8%. `COc1ccc(N2CCN(Cc3nc(-c4ccccc4)no3)CC2)cc1`: the “hERG current change (%, negative = inhibition) at 10uM” value was found to be 8.23%.

In the case of `COc1ccc(-c2noc(CNC(=O)Nc3ccc(F)cc3)n2)cc1`, the “hERG current change (%, negative = inhibition) at 10uM” value is -5.09%. In the case of `CCn1ncc(C2=NOC(C(=O)NCc3ccc(Cl)cc3)C2)c1C` (stereo not shown) it was -10.3%; in that of `Clc1c(-c2ccccc2)nc2ccccn12`, -1.73%; in that of `COc1ccc(S(=O)(=O)N(C)CC(=O)NCCCN2CCOCC2)cc1Cl`, -17.1%. For `CCCC(=O)Nc1nn(CCC)c2nc3ccccc3cc12`, the “hERG current change (%, negative = inhibition) at 10uM” value was -4.79%. Under `Cc1cccc(/C=N/NC(=O)c2ccncc2)n1` stands 23%; under `O=C1C(Cl)=CC(=Nc2ccc([O-])cc2)C=C1Cl.[Na+]`, -0.852%; under `Cc1ccc(O)c(-c2cc(C(=O)Nc3ccc(S(=O)(=O)N4CC(C)OC(C)C4)cc3)[nH]n2)c1` (stereo not shown), 3.92%. `Cc1ccc(SCCC(=O)N2CCN(S(=O)(=O)c3ccccc3)CC2)cc1`: the “hERG current change (%, negative = inhibition) at 10uM” value was -35%. On to `N#Cc1ccc(CSc2ncccn2)cc1`, for which the “hERG current change (%, negative = inhibition) at 10uM” value was -2.69%. As for `O=C(c1cn(Cc2ccccc2)c2ccccc12)C1CC1`, the “hERG current change (%, negative = inhibition) at 10uM” value worked out at 7.67%. `COc1ccccc1NC(=O)Cc1nnc(SCC(=O)Nc2nccs2)n1C`: the “hERG current change (%, negative = inhibition) at 10uM” value was found to be 20.8%.

Turning to `COC(=O)N/N=C(\CCC(=O)O)c1cccs1`, the “hERG current change (%, negative = inhibition) at 10uM” value is recorded as 11.7%. In the case of `CC1CN(C(=O)c2cc(S(=O)(=O)N3CCN(c4ccccc4)CC3)ccc2Cl)CC(C)O1` (stereo not shown) it was -39.8%. In the case of `CN(C)c1ccc(/C=[N+](\[O-])C2N(c3ccccc3)C(=S)SC2(C)C)cc1` (stereo not shown) it was 8.72%. Under `O=C(COC(=O)Cn1cnc2ccccc21)Nc1cc2c(cc1Cl)C(=O)c1ccccc1C2=O` stands 14.8%.

Take `CN(C)S(=O)(=O)N1CCC(Oc2ccc(C(=O)NC3Cc4ccccc4C3)cc2)CC1`: the “hERG current change (%, negative = inhibition) at 10uM” value is on record as 7.61%. Consider `O=C1CC(SC2=NCCS2)C(=O)N1c1cccc(Cl)c1Cl` (stereo not shown), for which the “hERG current change (%, negative = inhibition) at 10uM” value worked out at 11.1%. In the case of `CCCc1c(O)nc(SC2CC(=O)N(c3ccc(OC)cc3)C2=O)[nH]c1=O.Cl` (stereo not shown) it was 1.99%; in that of `CC(=O)c1cccc(CN2CCN(C3CCCC3)C(CCO)C2)c1` (stereo not shown), -23.9%. Under `N/C(=N\OC(=O)COc1ccc(Cl)cc1)c1ccc(Cl)cc1` stands 17.9%; under `O=C(N[C@@H](Cc1ccccc1)C(=O)O)c1cccs1`, 15.5%; under `CNC(=S)NNC(=O)c1ccccc1Br`, 7.8%. Take `CCOc1ccccc1C=Nc1ccccc1C(=O)Nc1ccccc1`: the “hERG current change (%, negative = inhibition) at 10uM” value is -3.41%. Under `CCC(C)N(NC(C)=O)c1nc(Cl)nc(NC(C)C)n1` (stereo not shown) stands -4.33%; under `COc1cccc(/C=N/NC(=O)c2cccc([N+](=O)[O-])c2)c1OS(=O)(=O)c1ccccc1`, -16.2%; under `CCOC(=O)C1CN(S(=O)(=O)c2ccc(Cl)cc2)c2cc(S(=O)(=O)CC)ccc2O1` (stereo not shown), -19.5%.

Turning to `Cc1ccc(/C=C2/Sc3ccccc3N(CC(=O)NCCCOC(C)C)C2=O)cc1`, the “hERG current change (%, negative = inhibition) at 10uM” value came out at 1.84%.

In the case of `COc1ccc(C(CC(=O)N2CCCC2)c2c(OC)cc(OC)c3ccc(=O)oc23)cc1` (stereo not shown), the “hERG current change (%, negative = inhibition) at 10uM” value was -9.25%. In the case of `CCCc1cc(=O)oc2c(CN3CCOCC3)c(O)ccc12` it was -16.7%; in that of `COc1cc(C2c3c(oc4ccccc4c3=O)C(=O)N2Cc2ccncc2)ccc1O` (stereo not shown), -29.7%. Under `COC(=O)c1sc(-c2ccc(C(C)(C)C)cc2)cc1NC(=O)c1ccccc1C(=O)O` stands 9.37%; under `CCC(=O)Nc1cccc(NC(=O)c2cccnc2)c1`, 3.31%; under `COc1ccc(CCNC(=O)COC(=O)CCC(=O)c2ccc(F)cc2)cc1`, 4.8%. With `COc1cccc(CC(=O)N(C)C2CCCN(Cc3ccccc3F)C2)c1` (stereo not shown), the “hERG current change (%, negative = inhibition) at 10uM” value was -4.79%. In the case of `CC(C)=CCc1cc([C@@H]2COc3c(ccc4c3C=CC(C)(C)O4)C2)c(O)cc1O` it was 3.61%; in that of `COc1ccc(CCNC(=O)COC(=O)/C=C/c2cccs2)cc1`, 8.62%.

Regarding `CN(CC(=O)Nc1ccc(Cl)c(C(F)(F)F)c1)C(=O)CCNC(=O)c1ccco1`, the “hERG current change (%, negative = inhibition) at 10uM” value is -43.1%. Under `O=C(c1cc(Cl)ccc1F)N1CCCC(Nc2ccc3c(c2)OCCO3)C1` (stereo not shown) stands -4.44%. As to `Cc1cc(C)cc(NC(=O)[C@H](Cc2c[nH]c3ccccc23)NC(=O)[C@@H]2Cc3ccccc3CN2)c1`, the “hERG current change (%, negative = inhibition) at 10uM” value is on record as -5.98%. Under `COC(=O)c1ccc(CSc2ncnc3c2nnn3-c2ccc(OC)cc2)o1` stands -3.25%; under `CCc1ccc(NC(=O)N(C2CCC(C)CC2)C2CCN(C(C)=O)CC2)cc1` (stereo not shown), -30.3%. Under `CC(C)(C)NC(=O)CSc1nnc(SCC(=O)NC(C)(C)C)s1` stands 38.9%; under `Cc1cccc(C)c1NC(=O)CSc1nc(C)c(CC(=O)c2ccc(Br)cc2)c(C)c1C#N`, 6.53%. Under `Cc1ccccc1Nc1nc(N)nc(CN2CCN(C(=O)c3ccccc3)CC2)n1` stands -37.9%; under `CC(=O)OCC(OC(C)=O)C(OC(C)=O)C(OC(C)=O)C(=O)Nc1ccccc1` (stereo not shown), 16.6%; under `CCOC(=O)C1CCCN(C(=O)c2cn(C)c(=O)c3cc(OC)c(OC)cc23)C1` (stereo not shown), 15.2%. Regarding `COc1cc(OC)c(C2N(c3cc(C)on3)C(=O)C3CCCN32)cc1OC` (stereo not shown), the “hERG current change (%, negative = inhibition) at 10uM” value came to 5.95%.

On to `Cc1cccc(C)c1NC(=O)Cn1nnc(C(=O)Nc2ccc(F)cc2F)c1N`, for which the “hERG current change (%, negative = inhibition) at 10uM” value is listed as 15.9%. As to `CC(C)CNC(=O)CN(C)S(=O)(=O)c1ccc(F)cc1`, the “hERG current change (%, negative = inhibition) at 10uM” value is on record as -1.25%. In the case of `OC1(c2ccccc2F)CCN(Cc2nnc(-c3ccccc3)o2)CC1` it was -2.92%.

In the case of `O=C(Nc1ccccc1F)c1ccc(S(=O)(=O)N2CCCCCC2)cc1`, the “hERG current change (%, negative = inhibition) at 10uM” value is recorded as 6.11%.

With `CC(C)(C)N(Cc1ccccc1)C(=O)COC(=O)c1cccc([N+](=O)[O-])c1`, the “hERG current change (%, negative = inhibition) at 10uM” value is given as -4.66%. Under `c1ccc(SCc2nc3ccccc3[nH]2)nc1` stands 13.8%.

`O=C(NCc1ccccc1)C(c1ccc(F)cc1)N(Cc1ccc2c(c1)OCO2)C(=O)Cn1nnc(-c2cccs2)n1` (stereo not shown): the “hERG current change (%, negative = inhibition) at 10uM” value was -1.88%. In the case of `O=C(OCc1nc2ccc(Cl)cc2n1CCO)c1ccc2c(c1)OCO2` it was -7.34%. Under `O=c1[nH]c(C2C3CC4CC(C3)CC2C4)nc2ccccc12` (stereo not shown) stands 17.2%. Under `CC1CN(S(=O)(=O)c2cccc3nsnc23)CC(C)O1` (stereo not shown) stands 2.56%.

Take `O=C(OCC(=O)N1CCN(c2ccccc2)CC1)c1ccc[n+]([O-])c1`: the “hERG current change (%, negative = inhibition) at 10uM” value stood at 7.34%. In the case of `CCN(CC)S(=O)(=O)c1cccc2cccnc12` it was -1.48%.

`CC(=O)/C(N=Nc1cc2c(c([N+](=O)[O-])c1C)C(C)(C)CC2(C)C)=C(\C)O`: the “hERG current change (%, negative = inhibition) at 10uM” value is 9.64%. Under `O=C(CSc1ncccn1)Nc1ccccc1` stands 3.55%. In the case of `CSc1nnc(-c2ccc(Br)s2)n1C` it was 1.98%; in that of `CCN1C(=O)N(C)C(N(O)C(=O)NC)C1(C)C` (stereo not shown), -2.48%; in that of `CCOC(=O)c1cc(C)n(Cc2ccccc2)c1C`, 1.15%. `O=C(N/N=C/C1CC2CCC1C2)C1CC1` (stereo not shown): the “hERG current change (%, negative = inhibition) at 10uM” value is 30.8%. In the case of `Cc1nc(-c2ccccc2)nn1-c1ccc([N+](=O)[O-])cc1` it was -26.2%; in that of `Cc1noc(C)c1CSCC(=O)Nc1cc(S(=O)(=O)N2CCOCC2)ccc1OC(C)C`, -35.2%; in that of `Cc1ccsc1C(=O)OCC(=O)N(C)c1c(N)n(Cc2ccccc2)c(=O)[nH]c1=O`, 27.7%. In the case of `Cc1ccc(C(=O)N/C(=C\c2cccs2)C(=O)N2CCCCCC2)cc1` it was -50.7%; in that of `COc1ccc(C(=O)NCC(=O)Nc2ccccc2)cc1OC`, 17.8%; in that of `COc1ccc(OC)c2[nH]c(=O)c(CCNS(=O)(=O)c3ccc(C)cc3)cc12`, -27.1%. In the case of `CC1(OC(=O)CCc2ccccc2)C(=O)C=C2C=C(c3ccc(C#N)cc3)N(CC3CC3)C=C2C1=O` (stereo not shown) it was -44.6%; in that of `O=C(O)c1ccc(-c2nnc(-c3cccc(Br)c3)o2)cc1`, 4.71%. As to `O=P(N[C@@H](c1ccccc1)[C@@H]1C[C@H]1CO)(c1ccccc1)c1ccccc1`, the “hERG current change (%, negative = inhibition) at 10uM” value is 3.95%. Under `Cc1cccc(C(=O)NCCC(=O)Nc2ccc(C#N)cc2)c1` stands -0.169%; under `O=C(CC1C(=O)NCCN1CC1CCCCC1)NCc1ccc(F)cc1` (stereo not shown), -20.3%. For the compound `Cc1cc(N2CCN(C(=O)/C=C/C(=O)O)CC2)c2ccccc2n1`, the “hERG current change (%, negative = inhibition) at 10uM” value was found to be 32.4%.

In the case of `CCN(CC)S(=O)(=O)c1ccc(N2CCN(S(=O)(=O)c3ccccc3C#N)CC2)nc1`, the “hERG current change (%, negative = inhibition) at 10uM” value is recorded as -9.83%. In the case of `Oc1cc(Cl)ccc1Oc1ccc(Cl)cc1Cl` it was 1.85%; in that of `CCN(CC)c1ccc(CN2CC=C(c3ccc(F)cc3)CC2)cc1`, -78.4%; in that of `CC(=O)NC(CC(=O)Nc1ccc2c(c1)OCCO2)c1ccccc1` (stereo not shown), 3.79%. `Cc1cccn2c(=O)nc(SCC(=O)N3CCCC3)nc12`: the “hERG current change (%, negative = inhibition) at 10uM” value was -22.6%. As for `COc1ccc(/C=C2\CCC(C3CCCC3)C2=O)cc1Cn1nc(C)cc1C` (stereo not shown), the “hERG current change (%, negative = inhibition) at 10uM” value came to 14.8%.

In the case of `O=C(c1cc2ncccn2n1)N1CCc2c([nH]c3ccccc23)C1c1ccccc1F` (stereo not shown), the “hERG current change (%, negative = inhibition) at 10uM” value was -5.11%.
